# Measured values reported in ChEMBL document CHEMBL4888484, “Replenishing the malaria drug discovery pipeline: Screening and hit evaluation of the MMV Hit Generation Library 1 (HGL1) against asexual blood stage Plasmodium falciparum ,using a nano luciferase reporter read-out” (2022).
# The whole screen tested about 150,000 compounds, of which about 540 (0.36%) showed an effect of 50% or more. The list shows a part of the results.
# Tested on: Plasmodium falciparum
# Test: Primary screen in NF54 nanoGlo assay, in single point, at 2uM, 72h; a lower Z score goes with more inhibition
# Format: functional, Erythrocyte
# Details: timepoint 72 hour
Structure (SMILES),% Inhibition,Z score
Cc1c(F)cccc1NC(=O)N1CC[C@H](N(CCCN2CCCC2)S(C)(=O)=O)C1,0%,-0.02
COCCN1C[C@@H](Cc2ccc3oc(-c4cccnc4)nc3c2)CC1=O,-12%,2.07
CCCNS(=O)(=O)c1ccc(OC)c(C(C)(C)C)c1,-4%,0.54
O=C(N[C@@H]1CN(Cc2cccc(F)c2F)C[C@H]1CO)c1ccccc1,2%,-0.29
CCN(C(=O)CCN)[C@@H](C)c1cccc(C(F)(F)F)c1,-8%,1.49
O=C(c1ncccn1)N1CC[C@H](Oc2cc(C(F)(F)F)ccn2)C1,-8%,1.48
O=C(OCC(=O)N1CCNC1=O)c1cc(Cl)c[nH]1,10%,-1.8
Cc1cc(C(=O)NCCN(C)CCc2ccccc2)cc(C)n1,-8%,1.11
CN(C[C@H]1CCOC1)c1ncnc2[nH]ccc12,-15%,1.49
CNC(=O)[C@@H](C)CN(C)Cc1ccc(Cl)cc1C,-7%,0.86
Cc1ccccc1Cn1c(=O)c(C(=O)NCc2ccc(F)cc2)nn(-c2ccccc2F)c1=O,-6%,0.97
O=C(CC1CCN(C(=O)c2nnc(C(=O)Nc3ccc(Cl)cc3)s2)CC1)NCCN1CCCCC1,-7%,1.08
O=C(C1CCc2ccccc2CC1)N1CCC(CO)CC1,-12%,1.87
Cc1nn(-c2ccccc2)c2sc(-c3noc(CNS(=O)(=O)c4ccccc4)n3)cc12,9%,-1.03
O=C(NCCOc1cccc(F)c1)[C@@H]1CCCO1,5%,-0.77
CC(=O)NC[C@H]1CN(CCCc2cnccc2C)CCO1,34%,-3.71
Cn1nc(N)c2cc(C(F)(F)F)ccc21,37%,-1.02
O=C(NCc1ccccc1Cl)c1ccc(N2CCCCS2(=O)=O)cc1,-19%,2.47
CC(C)CCn1cc(C(=O)N2CCC[C@@H]2Cc2ccc(F)cc2)nn1,-10%,1.6
O=C(c1cc(-c2cccc(Cl)c2)[nH]n1)N1CCN(C(c2ccccc2)c2ccccc2)CC1,-7%,1.05
COc1ccc(CN2C(=O)[C@H](CC(=O)Nc3ccc4[nH]ccc4c3)N=C2O)cc1OC,8%,-1.02
Cc1cccc(CN(C)C(=O)NCC2(N)CCC2)c1C,-3%,0.4

Structure (SMILES),% Inhibition,Z score
O=C(Cn1ncnn1)N1CCC(c2ccc(Cl)cc2Cl)CC1,-3%,0.35
COc1cc([C@H](C)NC(=O)Cc2ccncc2)cc(OC)c1OC,-16%,2.15
O=c1c2cccn2cnn1CCC1OCCO1,6%,-0.73
CC(C)(C)C1=CCN(CCNC(=O)c2c[nH]nn2)CC1,-4%,0.8
CC(C)(O)CC(=O)NCCc1cnn(Cc2ccccc2)c1,-5%,0.85
CN1CCc2cc(NC(=O)c3ccnn3C3CCC3)ccc2C1=O,0%,-0.09
COCCCN1C(=O)c2ccccc2NC12CCCC2,2%,-0.27
C#C[C@H](C)NC(=O)c1c(Br)cccc1Br,-4%,0.84
CC(C)(C)c1coc(CNC(=O)N[C@H]2C[C@@H]2c2ccc(F)cc2F)n1,1%,-0.24
O=C(c1csc(-c2ccnc(N3CCCC3)c2)n1)N1CCN(c2ccccc2)CC1,-11%,1.5
CC(=Cc1ccccc1)CN1CC[C@H](NS(C)(=O)=O)C1,-10%,0.98
C=CCc1c(C)nc(N)nc1N1CCC2(CC[C@H](CNC(C)=O)O2)CC1,-9%,1.4
CNC(=O)CN(Cc1nc(C)cs1)C[C@H]1CCCO1,1%,-0.17
COCC1(CCNC(=O)c2c(C(C)C)nn(C)c2Cl)CC1,16%,-2.02
C[C@@](CO)(Cc1ccc(Cl)cc1)NC(=O)c1ccc(C(F)(F)F)s1,10%,-1.22
Cc1noc(C)c1CS(=O)(=O)CC(=O)c1cc(C)n(C(C)C)c1C,28%,-3.79
OCC[C@H]1CCc2ccccc2N1Cc1ccn(CC(F)(F)F)n1,-6%,0.71
Cc1ccc(-c2nc3cccnc3s2)cc1NC(=O)CC1CCCCC1,-10%,1.85
C[C@@H](O)C(=O)N1CCC(CNC(=O)C2CCCCC2)CC1,0%,0.09
O=C(c1ccc(N2CCCN(Cc3ccccc3)C2=O)cc1)N1CCC(O)CC1,-2%,0.32
C=C1C2(C(=O)N3CCCC(C#N)C3)CCC(C2)C1(C)C (configuration not stated),-2%,0.21
O=C(CNc1ccccc1N1CCCCC1)Nc1ccc2c(c1)OCO2,-5%,0.94

Structure (SMILES),% Inhibition,Z score
CS(=O)(=O)C1CN(c2ccc(C#N)cn2)C1,-6%,0.75
Cn1c(=O)c2c(ncn2CC(=O)OCC(=O)Nc2ccc(Cl)cc2F)n(C)c1=O,-6%,0.92
CCN(CC)C[C@H](C)OC(=O)c1ccc(Cl)cc1Cl,-4%,0.69
O=C(c1cc(-c2ccccc2)on1)N1CCC(=C2CC2)CC1,-20%,2.33
O=C(NC[C@@H]1CCCN2CCCC[C@H]12)c1cc2cccc(Cl)c2s1,-11%,1.43
COc1ccc(-c2cnsn2)c(OC)c1OC,3%,-0.61
Cc1cc(Cl)c(C(C)NCC2CCN(S(C)(=O)=O)C2)cc1C (configuration not stated),-6%,1.12
CC(C)c1nc(C2CCCN(C(=O)C(C)n3cncn3)C2)no1 (configuration not stated),-4%,0.61
C[C@H](NC(=O)c1ccc2c(c1)OCCO2)C1CC1,2%,-0.23
Cc1ccc(C(F)(F)F)cc1CN1CC[C@](C)(O)[C@H](O)C1,-8%,1.62
COc1ccc(C(=O)N2CCCOCCNC(=O)CC2)cc1F,-14%,1.85
COc1ccc(F)cc1S(=O)(=O)N1CCN=C1Cc1cccc2ccccc12,1%,-0.17
Cc1nnc(N[C@H]2CCO[C@@H]2c2cnn(C)c2)o1,-2%,0.28
CC[C@H](C)n1nnc2cc(S(=O)(=O)N3CCC(C(=O)Nc4ccc(C)cc4Cl)CC3)ccc21,-20%,2.7
O=C(NC1Cc2ccccc2C1)c1cc2ncc(CCO)cn2n1,-6%,1.08
CC(=O)c1c(F)cccc1N[C@@H](C)CCO,3%,-0.29
COc1ccc(CN2CCc3nnc(-c4ccccc4)n3CC2)cc1OC,-7%,0.85
O=C(N[C@H]1CCOc2ccccc21)c1cccs1,-11%,1.03
Cc1nc(NC(=O)Cc2csc(NC(=O)c3ncccn3)n2)sc1C,-17%,2.03
c1ccc(-c2csc(CN3CCc4nncn4CC3)n2)cc1,0%,-0.01
CCNC(=O)N1CC(C(=O)NCc2ccco2)CC(c2ccc(OC)c(OC)c2)C1 (configuration not stated),-11%,1.05
Cc1c(F)cccc1N1CC[C@@H](C(=O)Nc2ccc(C(F)(F)F)cc2)C1=O,4%,-0.46

Structure (SMILES),% Inhibition,Z score
Cc1cnc(CN(C)CCOc2ccc(Cl)cc2C)cn1,3%,-0.4
Cc1nc(C)c(C(=O)Nc2ccc3c(c2)CCCN3)o1,-2%,0.21
CC(C)c1nccc(C(=O)N2CCOC(C)(C)C2)n1,-5%,0.72
Cn1cnc2c1CCN(Cc1cn3cc(Cl)ccc3n1)C2,-5%,0.62
c1ccc(-c2nc(-c3cccc(-c4nc(-c5ccccc5)c(-c5ccccc5)[nH]4)c3)[nH]c2-c2ccccc2)cc1,-2%,0.21
CCCCc1ccc(-c2ccc(-n3cncc3C(=O)NC3CCN(Cc4ccccc4)CC3)cc2)cc1,-5%,0.74
CC#CCn1c(=O)n(C[C@H]2CCCN2CC)c2ccc(C(=O)O)cc21,6%,-1.29
O=C(O)c1cc(S(=O)(=O)N2CC3(CC3)c3ccccc32)cs1,-4%,0.42
O=C1CC(CC2CC2)=NN1c1cc(F)ccc1F,-11%,1.33
CCS(=O)(=O)N1CC2(C[C@H](N(C)Cc3ccccc3)CO2)C1,-2%,0.4
Cc1ccc(-c2noc(-c3cccc4c3C(=O)N(C3CCCC3)C4)n2)cc1,-13%,1.64
CCOc1ncc(C)cc1NC(=O)N1CCN(C(C)=O)C2(CCCCC2)C1,12%,-1.53
CCn1ccnc1CN(C)[C@@H]1CCN(Cc2ccccc2)C1,-9%,1.47
CCc1cccc(C)c1NC(=O)[C@H]1CCCN(S(=O)(=O)c2ccc3c(c2)NC(=O)CO3)C1,-4%,0.66
Cc1ccc(-c2cc(C(=O)NC3CCCCC3)n(-c3ccc(Cl)c(Cl)c3)n2)cc1C,-8%,1.13
COc1cncc(NC(=O)N[C@@H]2CCC[C@@H]2Oc2cnn(C)c2)c1,-7%,1.38
Cc1cc(C)n(CCCNc2nc(C)ns2)n1,-13%,1.79
COCc1cc(C)nc(N2CCc3ccccc32)c1C#N,-6%,0.81
CCCC[C@@H](C(=O)Nc1cc(C)on1)n1cnc2c1c(=O)n(C)c(=O)n2C,-9%,1.5
COc1ccc(CN[C@H]2[C@H](O)[C@@H](n3cc(Cl)cn3)[C@@H]3OC[C@H]2O3)cc1,-4%,0.6
